Measured values as given in article PMC4336329 (PLoS ONE, 2015).
Screen size: about 310,000 compounds; about 14,000 (4.5%) showed an effect of 50% or more. Effects have a minus sign here. This is one part of the list.

target: human ether-à-go-go-related gene (hERG) potassium channel (human, UniProt Q12809); assay: primary screen, population patch clamp on CHO cells stably expressing hERG
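Further: peak tail current of the secondary pulse compared with the same well before compound.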

Chain of human ether-à-go-go-related gene (hERG) potassium channel (Q12809 whole entry, looked up): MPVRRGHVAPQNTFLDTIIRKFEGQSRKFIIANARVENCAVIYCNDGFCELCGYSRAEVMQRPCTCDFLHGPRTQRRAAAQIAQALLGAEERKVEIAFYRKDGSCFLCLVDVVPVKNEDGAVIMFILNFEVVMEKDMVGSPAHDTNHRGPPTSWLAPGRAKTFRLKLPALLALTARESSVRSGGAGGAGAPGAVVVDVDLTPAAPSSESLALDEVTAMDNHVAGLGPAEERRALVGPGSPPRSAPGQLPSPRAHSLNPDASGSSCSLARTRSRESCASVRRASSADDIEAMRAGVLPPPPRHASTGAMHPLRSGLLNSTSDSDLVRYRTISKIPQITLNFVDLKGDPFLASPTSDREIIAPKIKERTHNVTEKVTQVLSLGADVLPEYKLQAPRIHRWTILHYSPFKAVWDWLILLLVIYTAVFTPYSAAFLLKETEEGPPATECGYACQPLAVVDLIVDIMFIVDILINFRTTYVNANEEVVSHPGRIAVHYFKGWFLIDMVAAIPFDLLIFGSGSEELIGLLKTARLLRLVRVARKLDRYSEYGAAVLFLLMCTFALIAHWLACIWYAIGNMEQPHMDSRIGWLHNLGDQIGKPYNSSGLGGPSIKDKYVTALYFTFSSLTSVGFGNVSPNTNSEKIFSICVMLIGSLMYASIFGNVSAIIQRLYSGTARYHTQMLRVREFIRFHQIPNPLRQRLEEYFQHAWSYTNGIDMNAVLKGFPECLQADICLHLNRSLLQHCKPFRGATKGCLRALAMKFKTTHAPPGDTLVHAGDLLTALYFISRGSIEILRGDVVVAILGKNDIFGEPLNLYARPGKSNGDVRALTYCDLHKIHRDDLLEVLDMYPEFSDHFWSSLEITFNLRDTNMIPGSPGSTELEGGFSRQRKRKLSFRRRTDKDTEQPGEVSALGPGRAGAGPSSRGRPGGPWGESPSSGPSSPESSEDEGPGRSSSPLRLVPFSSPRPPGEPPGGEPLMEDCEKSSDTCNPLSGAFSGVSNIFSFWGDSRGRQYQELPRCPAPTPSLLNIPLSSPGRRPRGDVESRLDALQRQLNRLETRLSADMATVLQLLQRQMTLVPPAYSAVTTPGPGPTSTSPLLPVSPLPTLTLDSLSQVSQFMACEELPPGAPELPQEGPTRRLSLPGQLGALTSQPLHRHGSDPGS

| SMILES | hERG current change (%, negative = inhibition) at 10uM [%] |
| --- | --- |
| O=C(O)COc1ccc(/C=N/O)cc1Br | 8.08 |
| Cc1cccc(-n2c(Cn3nc(C)c([N+](=O)[O-])c3C)n[nH]c2=S)c1 | 10.3 |
| CC(C)COc1cccc(C(=O)NNC(=O)C2COc3ccccc3O2)c1 (stereo not shown) | -4.24 |
| O=C(CN1CC(=O)Nc2ccccc21)Nc1ccc(F)c(F)c1 | 13.9 |
| N#Cc1cc2sc3nnc(-c4ccncc4)n3c2cc1C#N | -54 |
| Cc1cccc(-c2nnc(SCC#N)n2Cc2ccccc2)c1 | -66.6 |
| COc1ccc(OCC(=O)N/N=C/c2ccncc2)cc1 | 17.9 |
| CC1(C)c2ssc(=S)c2-c2ccccc2N1C(=O)CSC1=NCCS1 | 11.7 |
| COCCCN1CC23C=CC(O2)C(C(=O)OC)C3C1=O (stereo not shown) | -5.4 |
| CC(C)CC(COCc1cccc(C(F)(F)F)c1)N1CCN(C(=O)c2cccc(C(F)(F)F)c2)CCC1=O (stereo not shown) | -12 |
| O=C(/C=C/c1cccc([N+](=O)[O-])c1)N1CCN(C(=O)c2ccco2)CC1 | -64.8 |
| CN1CC(c2ccccc2Cl)C2(COc3ccccc3C2=O)C12C(=O)Nc1ccccc12 (stereo not shown) | -15.1 |
| Cc1nc(CCNC(=O)CC2C(=O)NCCN2CC(C)C)nc2c1CCC2 (stereo not shown) | 16.8 |
| COc1cc(C2NC(=O)NC(C)=C2C(C)=O)ccc1O (stereo not shown) | 7.7 |
| CCOc1ccc(N(CC(=O)NCc2ccccc2)S(=O)(=O)c2ccc(C)cc2)cc1 | 4.04 |
| Cc1cccc(NS(=O)(=O)c2ccc(C)c(C(N)=O)c2)c1 | 13.1 |
| CC1CCCCN1C(=O)C1CCN(c2nc(-c3ccccc3)nc3c2CCC3)CC1 (stereo not shown) | -42.4 |
| CCc1ccc(-c2cc(C(=O)NCCCn3ccnc3)c3ccccc3n2)s1 | -73.6 |
| Cc1ccc(NC(=O)c2ccc(CNc3c(N4CCC(C)CC4)c(=O)c3=O)cc2)cc1 | 22.8 |
| Cc1ccc(CC(SCc2ccccc2)C(=O)O)cc1C (stereo not shown) | 8.52 |
| CCN(CC(=O)Nc1cc(Cl)ccc1C)C(=O)CN1C(=O)NC2(CCCC2)C1=O | 8.3 |
| CN(C)C(=O)CN1CCN(C(=O)CCl)CC1.Cl | -7.65 |

| SMILES | hERG current change (%, negative = inhibition) at 10uM [%] |
| --- | --- |
| CCC(=O)NNc1nc2c(C)c(C)ccc2s1 | 6.14 |
| Cn1c(C(C(=O)NCC2CCCO2)N(C(=O)Cn2nnc3ccccc32)C2CCCCC2)nc2ccccc21 (stereo not shown) | -4.55 |
| CC#CCN1c2ccccc2[C@]23C[C@@H](C(=O)OC)N(C(=O)c4ccco4)C2=NC(C(=O)OC)=C(C(=O)OC)[C@H]13 | -2.03 |
| CCN(C#N)c1nc(NC(C)C)nc(NC(C)C)n1 | -1.09 |
| CCOC(=O)c1cc(-c2ccc(Cl)cc2)nc2onc(C)c12 | 5.04 |
| Cc1ccc(S(=O)(=O)N2CCN(C(=O)CSc3ccc(F)cc3)CC2)cc1 | 18.7 |
| c1ccc(CCSc2ncnc3nc[nH]c23)cc1 | 2.87 |
| COc1ccc(NC(=S)N2CCN(S(=O)(=O)c3ccc(F)cc3)CC2)cc1 | -0.0908 |
| O=C(N/N=C/C=C/c1ccc2c(c1)OCO2)c1ccc([N+](=O)[O-])cc1 | -6.87 |
| O=C(c1ccc2c(c1)OCO2)C1CCCN(Cc2ccc(F)c(F)c2)C1 (stereo not shown) | -65.4 |
| O=C(NCC1CCCO1)c1c(O)nc2sccn2c1=O (stereo not shown) | -17.1 |
| O=C(N[C@@H](Cc1c[nH]c2ccccc12)C(=O)O)C1CCN(S(=O)(=O)c2ccc(Cl)cc2)CC1 | 7.53 |
| O=S(=O)(Nc1cc(Cl)ccc1N1CCCCC1)c1cccs1 | 9.45 |
| Cc1ccccc1Nc1nc(N)nc(COC(=O)c2ccc([N+](=O)[O-])o2)n1 | -10.9 |
| Brc1ccc(C2=CC(c3ccco3)n3nnnc3N2)cc1 (stereo not shown) | 3.13 |
| CCN(CC)S(=O)(=O)c1cc(C)c(C)cc1OCC(=O)NC1CCCC1 | -23.1 |
| O=C(CCl)Nc1cccc(S(=O)(=O)N2CCCCCC2)c1 | -20.6 |
| Cc1ccc(NC(=O)c2ccco2)c(NC(=O)c2ccc(Cl)cc2)c1 | 3.74 |
| Cc1cnc(C(=O)OCC(=O)Nc2cc(-c3ccccc3)nn2-c2ccccc2)cn1 | -38.6 |
| O=C(Nc1ccccc1F)C1CCCN1S(=O)(=O)c1cccc2nsnc12 (stereo not shown) | -7.47 |
| CCOC(=O)[C@H]1[C@H]2COc3cc(OC)ccc3[C@@H]2N2C(=O)CN(Cc3ccc(OC)cc3)C(=O)[C@@]12C | -1.96 |
